# Measurements taken from PubChem BioAssay (NCATS).
# Inconclusive means that the source gave no clear call. Such entries were picked first, then a sample of the others. For some of these results: Potencies of inconclusive entries are left out as doubtful fits. Active and inactive are the calls of the source. Calls follow the shape of the dose curve; as a rule, active = well fitted curve in the direction sought with a large enough effect; inconclusive = small, poorly fitted or top-dose-only effect, or another doubt; inactive = no such curve, though single readings can be large; an effect the other way counts as inactive or inconclusive.
# Legend:
# [1] = target: ATPase family AAA domain-containing protein 5 (Homo sapiens) (UniProt Q96QE3); assay: HTS assay for small molecules that inhibit ELG1-dependent DNA repair in human embryonic kidney (HEK293T) cells expressing luciferase-tagged ELG1: Hit Confirmation (AID 624248); also: nearly all actives have a fitted effect of over 55% in size; also: potency is read from the fitted curve at half-maximal effect
# Chain of UniProt Q96QE3 (Q96QE3 whole entry, looked up, the tested form may be a part): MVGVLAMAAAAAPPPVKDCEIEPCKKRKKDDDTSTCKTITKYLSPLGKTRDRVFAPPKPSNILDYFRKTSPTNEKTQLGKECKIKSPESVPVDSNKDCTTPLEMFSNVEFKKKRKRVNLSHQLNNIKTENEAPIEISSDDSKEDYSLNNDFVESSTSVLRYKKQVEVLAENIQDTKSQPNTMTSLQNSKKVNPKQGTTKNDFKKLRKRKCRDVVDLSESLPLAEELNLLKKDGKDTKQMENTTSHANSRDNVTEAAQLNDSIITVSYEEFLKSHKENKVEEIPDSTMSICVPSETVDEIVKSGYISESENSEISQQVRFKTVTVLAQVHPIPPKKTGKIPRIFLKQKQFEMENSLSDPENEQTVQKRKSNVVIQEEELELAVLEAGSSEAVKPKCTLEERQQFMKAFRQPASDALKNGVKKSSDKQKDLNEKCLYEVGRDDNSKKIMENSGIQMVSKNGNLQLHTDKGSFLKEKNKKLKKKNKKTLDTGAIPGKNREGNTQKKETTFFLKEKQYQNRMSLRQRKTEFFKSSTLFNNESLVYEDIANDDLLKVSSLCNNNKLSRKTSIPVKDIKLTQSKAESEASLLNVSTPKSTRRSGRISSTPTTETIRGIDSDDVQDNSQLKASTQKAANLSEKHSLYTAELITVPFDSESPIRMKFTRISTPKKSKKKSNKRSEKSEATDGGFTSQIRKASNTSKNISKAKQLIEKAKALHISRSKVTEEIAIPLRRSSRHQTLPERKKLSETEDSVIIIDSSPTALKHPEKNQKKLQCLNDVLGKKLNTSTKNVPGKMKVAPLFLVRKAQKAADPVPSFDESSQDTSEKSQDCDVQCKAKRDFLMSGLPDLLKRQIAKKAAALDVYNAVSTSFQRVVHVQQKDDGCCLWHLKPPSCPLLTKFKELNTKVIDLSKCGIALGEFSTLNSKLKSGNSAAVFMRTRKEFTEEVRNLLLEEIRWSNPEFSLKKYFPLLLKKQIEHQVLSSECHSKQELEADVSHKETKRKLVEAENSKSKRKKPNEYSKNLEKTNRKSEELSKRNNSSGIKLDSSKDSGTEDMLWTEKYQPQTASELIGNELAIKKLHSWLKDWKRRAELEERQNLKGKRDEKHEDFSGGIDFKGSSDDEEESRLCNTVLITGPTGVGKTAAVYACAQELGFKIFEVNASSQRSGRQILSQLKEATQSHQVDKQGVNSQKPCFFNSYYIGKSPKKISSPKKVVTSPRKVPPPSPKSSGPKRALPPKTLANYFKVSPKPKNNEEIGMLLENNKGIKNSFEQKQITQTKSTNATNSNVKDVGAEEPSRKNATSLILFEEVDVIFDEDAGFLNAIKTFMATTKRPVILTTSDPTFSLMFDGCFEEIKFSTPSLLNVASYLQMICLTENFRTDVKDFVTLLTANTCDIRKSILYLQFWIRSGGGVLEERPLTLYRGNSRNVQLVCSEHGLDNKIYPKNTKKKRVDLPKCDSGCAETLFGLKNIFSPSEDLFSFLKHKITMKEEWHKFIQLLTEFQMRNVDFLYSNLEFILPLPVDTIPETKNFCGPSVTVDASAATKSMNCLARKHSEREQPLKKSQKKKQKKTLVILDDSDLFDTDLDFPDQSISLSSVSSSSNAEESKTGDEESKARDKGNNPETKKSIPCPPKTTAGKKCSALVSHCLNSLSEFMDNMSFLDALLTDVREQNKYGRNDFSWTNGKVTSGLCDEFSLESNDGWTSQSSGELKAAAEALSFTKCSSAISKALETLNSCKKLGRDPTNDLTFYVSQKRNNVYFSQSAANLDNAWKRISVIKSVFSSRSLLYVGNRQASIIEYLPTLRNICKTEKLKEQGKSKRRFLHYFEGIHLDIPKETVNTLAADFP
# Procedure, shortened: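 Cells (2,000/well) received 5-Fluorouridine plus pin-transferred compound or DMSO and were incubated 16 hr at 37 °C, 5% CO2. Luciferase activity was read by ONE-Glo luminescence after 30 min at room temperature; inhibitors suppress the signal.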
# [2] = qHTS screen for small molecules that inhibit ELG1-dependent DNA repair: Hit Confirmation with 5FU Viability (AID 624250); also: potency is read from the fitted curve at half-maximal effect;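 also: viability measured 16 h after compound addition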
# Procedure, shortened: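 Cell line was HEK293T bearing an ELG1-luciferase reporter. Compound and 5-fluorouridine (10 µM final) were introduced about 5 h post-plating, with cell viability then determined by CellTiter-Glo luminescence at 16 h.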
# [3] = qHTS screen for small molecules that inhibit ELG1-dependent DNA repair: Hit Confirmation with MMS Viability (AID 624251);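 also: ELG1-luc HEK293T cells co-treated with 10 µM MMS; viability read 16 h after compound addition; nearly all actives have a fitted effect of over 60% in size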; also: potency is read from the fitted curve at half-maximal effect
# Procedure, shortened: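 Sixteen hours of compound exposure with MMS at 10 µM final preceded a CellTiter-Glo viability readout in ELG1-luciferase HEK293T cells, which were dosed about 5 h after seeding.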
# [4] = target: ATPase family AAA domain-containing protein 5 (Homo sapiens) (UniProt Q96QE3); assay: qHTS screen for small molecules that inhibit ELG1-dependent DNA repair in human embryonic kidney (HEK293T) cells expressing luciferase-tagged ELG1: Hit Confirmation using MMS Stimulated ELG1 (AID 624249); also: nearly all actives have a fitted effect of over 60% in size; also: potency is read from the fitted curve at half-maximal effect
# Procedure, shortened: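 Hit confirmation in an ELG1-luc HEK293T line: about five hours after plating, wells got compound plus MMS at a final 10 µM. A 16 h incubation preceded Amplight-based luciferase measurement.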
# [5] = target: Luciferin 4-monooxygenase (Photinus pyralis) (UniProt P08659); assay: qHTS screen for small molecules that inhibit ELG1-dependent DNA repair: Hit Confirmation in Biochemical Luciferin Assay (AID 624253); also: series mostly up to about 57 µM
# Procedure, shortened: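 Biochem luciferin/luciferase assay; substrate + cpd (pintool) + enzyme; luminescence readout, CCD imager.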
# [6] = target: DNA polymerase eta (Homo sapiens) (UniProt Q9Y253); assay: qHTS for Inhibitors of Polymerase Eta: Confirmatory Assay for Cherry-picked Compounds (AID 720502); conditions: Pol eta primer extension, TAMRA/BHQ fluorescence, 10 min; also: potency is read from the fitted curve at half-maximal effect
# Chain of UniProt Q9Y253 (Q9Y253 whole entry, looked up): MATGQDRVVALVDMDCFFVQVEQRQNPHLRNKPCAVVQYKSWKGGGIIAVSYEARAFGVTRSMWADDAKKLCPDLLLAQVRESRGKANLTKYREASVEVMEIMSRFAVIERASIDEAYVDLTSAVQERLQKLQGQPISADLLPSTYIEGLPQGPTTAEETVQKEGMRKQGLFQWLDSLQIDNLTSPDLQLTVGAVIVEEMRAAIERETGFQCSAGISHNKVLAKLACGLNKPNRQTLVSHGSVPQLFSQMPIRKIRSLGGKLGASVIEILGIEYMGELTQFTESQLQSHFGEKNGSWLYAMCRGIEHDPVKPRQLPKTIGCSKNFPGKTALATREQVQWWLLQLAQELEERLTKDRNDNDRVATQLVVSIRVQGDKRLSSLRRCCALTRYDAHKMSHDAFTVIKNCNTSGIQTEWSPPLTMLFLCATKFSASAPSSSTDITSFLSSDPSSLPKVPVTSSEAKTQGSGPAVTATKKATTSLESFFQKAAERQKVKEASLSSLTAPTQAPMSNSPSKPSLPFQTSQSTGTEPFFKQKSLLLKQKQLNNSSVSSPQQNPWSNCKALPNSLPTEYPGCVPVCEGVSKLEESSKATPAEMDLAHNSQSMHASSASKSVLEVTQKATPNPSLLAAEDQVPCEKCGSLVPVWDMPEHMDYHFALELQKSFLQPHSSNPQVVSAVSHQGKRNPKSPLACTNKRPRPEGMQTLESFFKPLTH
# Procedure, shortened: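 Human Pol eta at 10 nM was preincubated with compound for 15 min at room temperature. Reaction was started with TAMRA/BHQ-2-labelled primer-template substrate (50 nM final), with fluorescence read at 0 and 10 min (ex 525, em 598 nm).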
# Tags tell the direction and shape of the fitted curve.
smiles,measurement,setting,value
Cc1cc(OCC(=O)Nc2ccccc2C(N)=O)c2c(C)cc(=O)oc2c1,Potency,[1],active: 12.5 µM
same,Potency,[2],"inconclusive [rising, full curve]"
same,Potency,[3],"inconclusive [rising, full curve]"
CC(=O)c1c(C)n(-c2ccc(C)cc2)c2ccc(O)cc12,Potency,[1],inactive
same,Potency,[2],inactive
same,Potency,[3],inactive
CCCCc1ccc(NC(=O)C(=O)NCCN2CCN(Cc3ccc([N+](=O)[O-])cc3)CC2)cc1,Potency,[1],"inconclusive [inhibitor, partial curve, poor fit]"
same,Potency,[2],inactive
same,Potency,[3],active: 1.25 µM
O=C(/C=C/c1ccc(S(=O)(=O)N2CCOCC2)cc1)N1CCN(c2ccc(F)cc2)CC1,Potency,[1],inactive
same,Potency,[3],"inconclusive [cytotoxic, partial curve]"
Cc1nn(-c2ccccc2)c(C)c1C(=O)OCC(=O)c1c(N)n(CC(C)C)c(=O)n(C)c1=O,Potency,[1],active: 3.97 µM
same,Potency,[2],"inconclusive [cytotoxic, single point]"
same,Potency,[3],active: 1.25 µM
CCCNc1nc2c(c(=O)n(C)c(=O)n2C)n1Cc1cccc(C)c1,Potency,[1],"inconclusive [inhibitor, partial curve]"
same,Potency,[2],inactive
same,Potency,[3],active: 7.91 µM
[N-]=[N+]=Nc1nc2c(N)ncnc2n1C1OC(CO)C(O)C1O (configuration not stated),Potency,[1],active: 3.53 µM
same,Potency,[2],"inconclusive [cytotoxic, partial curve]"
same,Potency,[3],"inconclusive [cytotoxic, full curve]"
COc1ccc(-c2noc(CCCCC(=O)N3CCN(c4cc(C)ccc4C)CC3)n2)cc1,Potency,[1],"inconclusive [inhibitor, partial curve]"
same,Potency,[2],inactive
same,Potency,[3],active: 1.12 µM
Cc1ncoc1C(=O)NC1CCCc2c1cnn2-c1ccc(C(C)(C)C)cc1 (configuration not stated),Potency,[1],"inconclusive [inhibitor, partial curve]"
same,Potency,[3],active: 0.791 µM
COc1ccc(C2=NN(C(=O)COc3ncnc4ccccc34)C(c3ccco3)C2)cc1 (configuration not stated),Potency,[1],"inconclusive [inhibitor, partial curve]"
same,Potency,[2],"inconclusive [rising, partial curve]"
same,Potency,[3],inactive
Cc1cccn2c(CNCC3(c4ccccc4)CCCC3)c(C(=O)N3CCOCC3)nc12,Potency,[1],"inconclusive [inhibitor, partial curve]"
same,Potency,[2],inactive
same,Potency,[3],active: 25 µM
O=C(N/N=C/c1cc(Br)ccc1OC(=O)c1ccc(Br)cc1)c1ccncc1,Potency,[1],"inconclusive [inhibitor, full curve]"
same,Potency,[2],inactive
same,Potency,[3],"inconclusive [cytotoxic, partial curve, poor fit]"
COc1cc(NC(=O)c2cc(-c3ccccc3)nc3c2cnn3C(C)C)cc(OC)c1OC,Potency,[1],active: 7.05 µM
same,Potency,[2],"inconclusive [rising, full curve]"
same,Potency,[3],"inconclusive [cytotoxic, partial curve, poor fit]"
COc1ccc2ncn(-c3ccccc3)c2c1,Potency,[1],"inconclusive [inhibitor, partial curve]"
same,Potency,[3],"inconclusive [rising, partial curve, poor fit]"
CC(C)(C)OC(=O)NCc1ccc(NC(=O)c2nc[nH]c2C(=O)NCCCCCCNC(=O)c2[nH]cnc2C(=O)Nc2ccc(CNC(=O)OC(C)(C)C)cc2)cc1,Potency,[1],active: 1.12 µM
same,Potency,[2],"inconclusive [rising, full curve, poor fit]"
same,Potency,[3],"inconclusive [cytotoxic, partial curve, poor fit]"
Cc1ccc2nsnc2c1S(=O)(=O)N(Cc1cc2cccc(C)c2[nH]c1=O)CC1CCCO1 (configuration not stated),Potency,[1],"inconclusive [inhibitor, partial curve]"
same,Potency,[3],inactive
COc1ccc(CCN2C(=O)C3C4C=CC(C3C2=O)C2C(=O)N(CCc3ccc(OC)c(OC)c3)C(=O)C42)cc1OC (configuration not stated),Potency,[1],"inconclusive [inhibitor, partial curve]"
same,Potency,[2],inactive
same,Potency,[3],active: 4.99 µM
COc1cc(NC(=O)C2CCC(CNc3c(N4CCCCC4)c(=O)c3=O)CC2)cc(OC)c1 (configuration not stated),Potency,[1],active: 11.2 µM
same,Potency,[2],"inconclusive [rising, full curve]"
same,Potency,[3],inactive
COc1ccc(C(=O)c2ccc(Br)cc2)cc1,Potency,[1],inactive
same,Potency,[2],inactive
same,Potency,[3],inactive
COc1ccc(OC)c(NC(=O)c2ccc3c(=O)n(CCc4ccccc4)c(=S)[nH]c3c2)c1,Potency,[1],"inconclusive [inhibitor, full curve]"
same,Potency,[2],inactive
same,Potency,[3],active: 0.628 µM
COc1ccc(-c2oc(=O)c3cc(OC)c(OC)cc3c2/C=C/c2cccc([N+](=O)[O-])c2)cc1,Potency,[1],"inconclusive [inhibitor, full curve]"
same,Potency,[3],"inconclusive [cytotoxic, partial curve, poor fit]"
CCCN(CCC)c1ncnc2nc[nH]c12,Potency,[4],"inconclusive [inhibitor, partial curve]"
COC(=O)c1[nH]c2ccc(C)cc2c1NC(=O)C(C)N1CCN(C2CCCCC2)CC1 (configuration not stated),Potency,[4],"inconclusive [inhibitor, partial curve]"
O=C(Nc1ccncc1)C1CC1c1ccccc1 (configuration not stated),Potency,[1],"inconclusive [inhibitor, full curve]"
same,Potency,[5],inactive
Cc1cccc(NC(=O)C2CCN(c3ncnc4c3nc3n4CCCCC3)CC2)n1,Potency,[4],"inconclusive [inhibitor, partial curve]"
same,Potency,[2],"inconclusive [rising, full curve, poor fit]"
COc1ccc(-c2cc(C(F)(F)F)n3nc(C(=O)Nc4cc(C)on4)cc3n2)cc1OC,Potency,[1],"inconclusive [inhibitor, full curve]"
same,Potency,[3],"inconclusive [rising, partial curve, poor fit]"
COc1ccc(OC)c(CN2CCN(CC(=O)Nc3ccccc3C(=O)NC3CC3)CC2)c1,Potency,[4],"inconclusive [inhibitor, partial curve]"
same,Potency,[2],"inconclusive [rising, partial curve, poor fit]"
CCOc1ccc(CC(=O)Nc2ccc(NC(=O)c3ccco3)cc2)cc1OCC,Potency,[1],"inconclusive [inhibitor, single point]"
same,Potency,[3],active: 0.0705 µM
Cn1nc(CC(=O)Nc2ccc3c(c2)CCC3)c2ccccc2c1=O,Potency,[1],"inconclusive [inhibitor, full curve]"
same,Potency,[3],active: 0.889 µM
COc1ccccc1NC(=O)Nc1nc(CC(=O)Nc2ccc(F)c(F)c2)cs1,Potency,[4],inactive
COc1ccc(CNC(=O)C(c2ccc(C)o2)N(Cc2cccs2)C(=O)Cc2cccs2)cc1 (configuration not stated),Potency,[4],"inconclusive [inhibitor, partial curve]"
CCOc1cccc(-c2nnc(SCC(=O)Nc3cc(C)ccc3OC)n2N)c1,Potency,[1],"inconclusive [inhibitor, partial curve, poor fit]"
same,Potency,[3],inactive
CCN(C[C@H]1N[C@@](CC)(C(=O)OC)[C@H]2C(=O)N(Cc3ccccc3)C(=O)[C@@H]12)C(=O)c1ccc(C(C)(C)C)cc1,Potency,[1],"inconclusive [inhibitor, partial curve]"
same,Potency,[3],"inconclusive [cytotoxic, partial curve]"
COc1ccc(C2=Nn3c(nnc3-c3ccncc3)SC2)cc1,Potency,[4],"inconclusive [inhibitor, partial curve]"
O=C(Nc1cc(Br)ccc1O)c1cnn2c(C(F)F)cc(C3CC3)nc12,Potency,[4],inactive
same,Potency,[2],"inconclusive [rising, full curve]"
Cc1ccc(NC(=S)N(Cc2cccs2)Cc2cc3cccc(C)c3[nH]c2=O)cc1,Potency,[4],"inconclusive [inhibitor, single point]"
same,Potency,[2],"inconclusive [rising, partial curve, poor fit]"
CC1(C)Cc2c(c(N3CCOCC3)nc3sc4c(NCc5ccccc5)nnnc4c23)CS1,Potency,[4],inactive
CC(C)(CNC(=O)c1ccc(Cl)c(S(=O)(=O)N2CCc3ccccc3C2)c1)N1CCOCC1,Potency,[1],"inconclusive [inhibitor, full curve]"
same,Potency,[3],active: 1.99 µM
COc1ccc(NC(=O)c2sc3nc(C)nc(N4CCN(c5ccccn5)CC4)c3c2C)c(OC)c1,Potency,[4],"inconclusive [inhibitor, partial curve]"
same,Potency,[2],"inconclusive [rising, full curve]"
COc1cc2c(C#CCCCO)c(-c3ccsc3)oc(=O)c2cc1OC,Potency,[4],"inconclusive [inhibitor, full curve]"
O=C(CSc1ccc2nnc(-c3cccc(F)c3)n2n1)N1CCCc2ccccc21,Potency,[4],"inconclusive [inhibitor, partial curve]"
Cc1cccc(/C=C/c2onc(C)c2S(=O)(=O)N2CCC(C(=O)N3CCCCC3)CC2)c1,Potency,[4],"inconclusive [inhibitor, partial curve, poor fit]"
same,Potency,[2],"inconclusive [rising, full curve]"
CCN(CC)C(=O)c1sc(NC(=O)c2cccnc2)c(C(=O)OC)c1C,Potency,[4],inactive
same,Potency,[2],"inconclusive [rising, partial curve]"
CC(/C=N/n1c(-c2ccncc2)n[nH]c1=S)=C\c1ccco1,Potency,[1],active: 12.5 µM
same,Potency,[6],"inconclusive [inhibitor, single point]"
CCOc1ccc(C(C(=O)NC2CCCC2)N(C(=O)c2snc(C(N)=O)c2N)c2cccc(O)c2)cc1 (configuration not stated),Potency,[4],"inconclusive [inhibitor, full curve]"
